Assay results published in paper PMC7671991.
Results are given in words; binding and its absence hold for the method and conditions named. For some assays here: Binding seen in cells or lysates may run through a third protein. Some results given as binding are weak or reduced against the parent protein; the word gives no strength. For some assays here: Tags and fused reporters may be left off the sequences shown. One block for each substance: values may come before it.

Amino acid sequences for entries named in this document (tags omitted). Residues count along the entry.
UniProt Q92624: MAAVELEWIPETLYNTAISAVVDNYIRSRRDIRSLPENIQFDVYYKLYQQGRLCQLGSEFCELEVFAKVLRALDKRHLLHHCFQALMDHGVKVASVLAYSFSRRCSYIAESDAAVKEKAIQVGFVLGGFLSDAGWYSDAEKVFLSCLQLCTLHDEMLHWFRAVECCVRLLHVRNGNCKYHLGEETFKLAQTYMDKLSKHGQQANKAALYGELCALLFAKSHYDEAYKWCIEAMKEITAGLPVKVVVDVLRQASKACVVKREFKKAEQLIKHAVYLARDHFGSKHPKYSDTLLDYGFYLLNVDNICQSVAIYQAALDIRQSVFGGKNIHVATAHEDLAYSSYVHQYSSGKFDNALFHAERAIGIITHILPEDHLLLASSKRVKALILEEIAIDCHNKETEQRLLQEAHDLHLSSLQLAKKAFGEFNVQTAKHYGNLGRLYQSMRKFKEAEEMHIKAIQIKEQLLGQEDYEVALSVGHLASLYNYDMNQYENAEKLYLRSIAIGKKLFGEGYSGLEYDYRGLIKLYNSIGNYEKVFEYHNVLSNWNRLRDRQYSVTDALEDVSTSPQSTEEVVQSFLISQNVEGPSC
UniProt P63170: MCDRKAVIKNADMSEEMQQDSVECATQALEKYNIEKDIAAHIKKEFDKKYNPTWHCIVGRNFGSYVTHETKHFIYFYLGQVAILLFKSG
UniProt Q76MZ3, residues 268-589: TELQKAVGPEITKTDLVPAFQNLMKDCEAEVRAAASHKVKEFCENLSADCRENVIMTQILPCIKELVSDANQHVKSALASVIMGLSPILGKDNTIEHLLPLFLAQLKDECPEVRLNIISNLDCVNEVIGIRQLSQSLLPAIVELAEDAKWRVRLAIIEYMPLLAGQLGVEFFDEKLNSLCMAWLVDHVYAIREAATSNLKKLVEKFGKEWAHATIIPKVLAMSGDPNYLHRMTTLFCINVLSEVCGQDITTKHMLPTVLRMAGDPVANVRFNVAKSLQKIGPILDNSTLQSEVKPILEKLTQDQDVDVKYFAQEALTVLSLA

Tests used:
[1] = target: T1, Flag-tagged full-length RME-6 (mouse) (UniProt Q6PAR5); experiment: co-IP; as the co-IP of PAT1a HA and Flag RME-6, cell lysate treated with shrimp alkaline phosphatase before the co-immunoprecipitation; data not shown
T1 sequence: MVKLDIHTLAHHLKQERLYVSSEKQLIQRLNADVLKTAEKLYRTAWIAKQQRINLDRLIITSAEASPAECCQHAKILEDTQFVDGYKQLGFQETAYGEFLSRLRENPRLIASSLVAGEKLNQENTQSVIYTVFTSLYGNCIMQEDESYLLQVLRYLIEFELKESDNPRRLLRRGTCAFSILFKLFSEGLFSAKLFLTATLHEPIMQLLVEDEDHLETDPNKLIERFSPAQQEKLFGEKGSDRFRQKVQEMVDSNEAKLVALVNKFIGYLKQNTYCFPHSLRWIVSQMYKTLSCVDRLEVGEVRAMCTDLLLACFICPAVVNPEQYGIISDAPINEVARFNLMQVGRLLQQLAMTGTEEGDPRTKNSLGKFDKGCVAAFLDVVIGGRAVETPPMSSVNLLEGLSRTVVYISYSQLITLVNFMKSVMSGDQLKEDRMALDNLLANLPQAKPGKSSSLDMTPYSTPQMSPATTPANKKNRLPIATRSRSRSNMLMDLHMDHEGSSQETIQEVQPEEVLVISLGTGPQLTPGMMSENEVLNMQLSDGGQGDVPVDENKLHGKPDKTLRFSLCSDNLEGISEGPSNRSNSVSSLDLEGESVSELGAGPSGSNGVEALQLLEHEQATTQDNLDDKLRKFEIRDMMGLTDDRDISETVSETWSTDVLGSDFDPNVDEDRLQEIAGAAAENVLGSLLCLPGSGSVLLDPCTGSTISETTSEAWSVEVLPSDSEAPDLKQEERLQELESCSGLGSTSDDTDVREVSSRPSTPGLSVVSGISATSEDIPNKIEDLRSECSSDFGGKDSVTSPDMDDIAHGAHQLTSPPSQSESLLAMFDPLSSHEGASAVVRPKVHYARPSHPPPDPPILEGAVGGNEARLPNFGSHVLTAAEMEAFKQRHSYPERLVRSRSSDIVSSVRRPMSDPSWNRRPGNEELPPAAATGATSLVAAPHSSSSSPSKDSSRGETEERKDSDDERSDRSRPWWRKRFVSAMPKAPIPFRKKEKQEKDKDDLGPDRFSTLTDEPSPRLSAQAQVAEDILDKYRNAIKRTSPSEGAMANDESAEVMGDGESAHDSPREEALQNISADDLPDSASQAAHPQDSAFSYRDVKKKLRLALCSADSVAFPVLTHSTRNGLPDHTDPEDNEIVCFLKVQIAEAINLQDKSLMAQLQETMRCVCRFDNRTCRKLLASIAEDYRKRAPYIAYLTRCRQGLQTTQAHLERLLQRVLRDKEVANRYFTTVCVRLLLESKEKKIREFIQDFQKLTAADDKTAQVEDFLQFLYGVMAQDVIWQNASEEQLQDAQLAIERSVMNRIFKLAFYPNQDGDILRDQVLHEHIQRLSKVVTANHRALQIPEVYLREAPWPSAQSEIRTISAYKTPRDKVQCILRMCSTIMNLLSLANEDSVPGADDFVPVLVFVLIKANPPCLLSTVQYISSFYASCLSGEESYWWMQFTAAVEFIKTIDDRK

[2] = target: T1, Flag-tagged full-length RME-6 (mouse); experiment: co-IP; N2a cells co-transfected with PAT1a HA and Flag RME-6 forms; lysis in 50 mM Tris/HCl pH 7.5, 150 mM NaCl, 5 mM EDTA, 1% NP40; IP with anti-Flag (M2) by the results and legend (HA beads by the methods); Western blot with anti-Flag and anti-HA
[3] = target: LexA BD-PAT1a full-length (protein interacting with APP tail 1a) (human) (UniProt Q92624); experiment: two-hybrid; LexA BD baits (pHybLex/Zeo) and GAL4 AD preys (pPC86) in yeast L40; growth on selection medium lacking histidine with 20 mM 3-aminotriazole; screen of an adult mouse brain cDNA library and retransformation of the isolated clones
LexA BD-gephyrin = target: T2, LexA BD-gephyrin (UniProt Q03555); experiment: as above
T2 sequence: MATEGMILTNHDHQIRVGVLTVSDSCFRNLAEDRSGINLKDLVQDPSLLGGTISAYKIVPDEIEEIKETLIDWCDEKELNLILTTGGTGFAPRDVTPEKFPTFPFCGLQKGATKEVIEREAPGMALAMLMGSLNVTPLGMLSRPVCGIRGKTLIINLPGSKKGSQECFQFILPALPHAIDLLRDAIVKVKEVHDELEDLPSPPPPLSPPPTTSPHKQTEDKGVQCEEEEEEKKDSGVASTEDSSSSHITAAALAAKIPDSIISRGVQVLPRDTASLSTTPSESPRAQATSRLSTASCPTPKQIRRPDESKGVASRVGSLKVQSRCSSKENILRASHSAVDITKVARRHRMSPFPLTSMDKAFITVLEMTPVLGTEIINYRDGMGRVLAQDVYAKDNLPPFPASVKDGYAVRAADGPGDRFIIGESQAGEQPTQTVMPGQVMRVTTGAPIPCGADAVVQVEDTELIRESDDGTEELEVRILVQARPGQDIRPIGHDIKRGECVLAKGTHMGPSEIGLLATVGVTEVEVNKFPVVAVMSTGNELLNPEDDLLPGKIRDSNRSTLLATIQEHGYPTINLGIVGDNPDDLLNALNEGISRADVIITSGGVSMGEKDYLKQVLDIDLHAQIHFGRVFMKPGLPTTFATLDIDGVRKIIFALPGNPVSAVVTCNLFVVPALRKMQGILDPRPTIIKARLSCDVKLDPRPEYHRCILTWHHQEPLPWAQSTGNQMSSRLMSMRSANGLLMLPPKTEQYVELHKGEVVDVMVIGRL

[4] = target: T3, GST-Krba1 (514-1044) (Mus musculus (house mouse)) (UniProt Q6NXZ1); experiment: pull-down; GST or GST fusion on Glutathione Sepharose beads; 35S-labelled in vitro translated PAT1a; buffer H (50 mM Tris pH 6.8, 50 mM KCl, 100 mM NaCl, 2 mM CaCl2, 2 mM MgCl2, 0.1% Triton X-100, 5 mM dithiothreitol), 90 min; SDS-PAGE and autoradiography; only the target purified
T3 sequence: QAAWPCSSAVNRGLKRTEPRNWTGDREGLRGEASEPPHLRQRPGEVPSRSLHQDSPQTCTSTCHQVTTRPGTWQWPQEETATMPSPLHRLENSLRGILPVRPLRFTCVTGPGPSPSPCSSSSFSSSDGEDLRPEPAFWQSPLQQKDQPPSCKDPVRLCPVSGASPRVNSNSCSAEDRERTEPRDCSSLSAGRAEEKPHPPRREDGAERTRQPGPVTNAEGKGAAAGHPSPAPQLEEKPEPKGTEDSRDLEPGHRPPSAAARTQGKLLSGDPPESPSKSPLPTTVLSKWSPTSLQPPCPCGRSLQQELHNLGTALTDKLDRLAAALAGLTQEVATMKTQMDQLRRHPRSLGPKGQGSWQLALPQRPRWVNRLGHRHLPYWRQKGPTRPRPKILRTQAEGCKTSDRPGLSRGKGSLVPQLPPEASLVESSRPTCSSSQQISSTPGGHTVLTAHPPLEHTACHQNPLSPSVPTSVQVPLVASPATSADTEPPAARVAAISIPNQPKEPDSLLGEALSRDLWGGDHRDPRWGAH

[5] = target: T4, GST-RME-6 (561-1170) (Mus musculus (house mouse)) (UniProt Q6PAR5); experiment: as above
T4 sequence: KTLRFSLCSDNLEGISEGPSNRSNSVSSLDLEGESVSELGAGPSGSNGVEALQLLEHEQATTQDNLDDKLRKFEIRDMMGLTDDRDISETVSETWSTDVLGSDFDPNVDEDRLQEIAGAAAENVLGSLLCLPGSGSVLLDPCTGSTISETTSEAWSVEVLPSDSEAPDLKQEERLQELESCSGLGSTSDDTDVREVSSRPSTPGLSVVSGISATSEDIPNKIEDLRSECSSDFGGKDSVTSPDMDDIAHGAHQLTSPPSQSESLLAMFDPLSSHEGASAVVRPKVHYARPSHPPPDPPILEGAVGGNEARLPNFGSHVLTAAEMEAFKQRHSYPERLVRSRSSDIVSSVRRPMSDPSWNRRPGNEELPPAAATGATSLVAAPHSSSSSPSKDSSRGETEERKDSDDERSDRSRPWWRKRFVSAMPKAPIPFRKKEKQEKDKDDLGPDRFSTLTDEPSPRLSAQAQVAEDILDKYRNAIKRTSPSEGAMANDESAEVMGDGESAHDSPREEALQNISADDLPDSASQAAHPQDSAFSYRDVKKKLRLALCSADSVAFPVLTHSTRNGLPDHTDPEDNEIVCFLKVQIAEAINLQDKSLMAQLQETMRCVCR

[6] = target: T5, GST-sf3b155 (1-598) (Mus musculus (house mouse)) (UniProt Q99NB9); experiment: as above
T5 sequence: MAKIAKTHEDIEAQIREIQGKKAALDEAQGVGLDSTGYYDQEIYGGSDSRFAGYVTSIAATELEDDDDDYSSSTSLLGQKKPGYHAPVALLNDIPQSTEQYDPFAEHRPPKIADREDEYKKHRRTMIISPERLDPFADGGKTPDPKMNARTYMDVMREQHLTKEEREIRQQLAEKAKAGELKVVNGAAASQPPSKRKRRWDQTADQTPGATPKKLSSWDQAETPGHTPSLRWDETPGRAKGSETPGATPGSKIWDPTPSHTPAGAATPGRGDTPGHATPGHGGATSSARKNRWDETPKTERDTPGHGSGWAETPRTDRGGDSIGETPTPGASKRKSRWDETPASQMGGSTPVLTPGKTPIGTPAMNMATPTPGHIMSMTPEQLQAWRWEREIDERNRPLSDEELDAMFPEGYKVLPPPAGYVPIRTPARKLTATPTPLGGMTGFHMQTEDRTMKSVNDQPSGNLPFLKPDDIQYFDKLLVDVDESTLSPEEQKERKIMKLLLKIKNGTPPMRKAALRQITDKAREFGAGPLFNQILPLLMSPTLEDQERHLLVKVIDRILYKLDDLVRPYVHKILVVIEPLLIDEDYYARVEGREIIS

binding [1]: binds | binding [2]: binds weakly
Substance: C-terminally HA-tagged PAT1a (from UniProt Q92624 1-585)

binding [3]: no binding | binding (LexA BD-gephyrin): binds
Substance: GAL4 AD-DLC1 (from UniProt P63170 1-89)

binding [3]: no binding
Substance: GAL4 AD-PR65 (268-590) (alpha-subunit of protein phosphatase 2A) (from UniProt Q76MZ3 268-589) (domain or fragment)

binding [4]: binds | binding [5]: binds | binding [6]: binds
Substance: in vitro translated, 35S-labelled PAT1a (from UniProt Q92624 1-585)
